{"source": "PubChem BioAssay AID2546", "about": "(National Center for Advancing Translational Sciences (NCATS), 2010)", "note": "Hit rate of the full screen: of about 310,000 compounds, about 11,000 (3.5%) were called active. Inconclusive results, whose numbers are uncertain, are shown with a selection of clear calls. Calls come from the whole dose curve; as a rule, active = well fitted inhibition curve with a large enough effect; inconclusive = small, poorly fitted or top-dose-only effect, or effect the other way; inactive = flat fitted curve, though single readings scatter. No potency is given beside an inconclusive call; the fits are too rough. % is set by controls: 0 for no effect and ±100 for the full control effect; potency is the fitted concentration of half-maximal effect; tags give direction and shape of the fitted curve.", "data": [{"test": "VP16 counterscreen qHTS for inhibitors of ROR gamma transcriptional activity;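 note: Gal4-VP16 expression switched on by copper sulfate through the metallothionein promoter; nearly all actives have a fitted effect of over 50% in size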", "conditions": "Drosophila S2 Gal4-VP16 UAS-luciferase, luminescence, 20 h; activity, negative = inhibition: at 53.6 µM (top of the series)", "values": [{"smiles": "O=C(Nc1cnc2ccccc2c1)N1CCCCC1", "Potency": "inconclusive [inhibitor, single point]"}, {"smiles": "Cc1cccc(NC(=O)/C(C#N)=C/c2cn(CC(=O)NCc3ccco3)c3ccccc23)c1C", "Potency": "inconclusive [inhibitor, single point]"}, {"smiles": "CSc1nc(-c2ccccc2)[nH]c(=S)c1C(C)=O", "Potency": "inconclusive [inhibitor, single point]"}, {"smiles": "COc1ccc(Cn2c(=S)[nH]c3ccsc3c2=O)cc1", "Potency": "active: 2.24 µM"}, {"smiles": "O=C(Nc1ccccc1)Nc1ccc(Cl)c([N+](=O)[O-])c1", "Potency": "inconclusive [inhibitor, single point]"}, {"smiles": "COc1ccc(Cc2nc3ccc(C(=O)N4CCCC4)cc3o2)cc1OC", "Potency": "inconclusive [inhibitor, single point]"}, {"smiles": "O=C(O)c1ccc(N=NN2CCCCC2)cc1", "Potency": "inconclusive [inhibitor, partial curve, poor fit]"}, {"smiles": "COc1cc(OC)c(NC(=S)Nc2cc(Cl)cc(Cl)c2)cc1Cl", "Potency": "inconclusive [inhibitor, single point]"}, {"smiles": "COc1ccc(-c2nc3ccc(C)cn3c2NCc2ccc3c(c2)OCO3)cc1", "activity, negative = inhibition": "inactive: -12.1%"}, {"smiles": "CCOC(=O)c1sc(N(Cc2ccccc2)C(=O)COC(=O)c2ccc(O)cc2)nc1C", "Potency": "inconclusive [inhibitor, single point]"}, {"smiles": "Cc1cc(C)cc(OCC(=O)Nc2ccc3c4c(cccc24)CC3)c1", "Potency": "inconclusive [inhibitor, single point]"}, {"smiles": "O=C1C(Oc2ccccc2)C(c2ccc3c(c2)OCO3)N1CCc1ccc(F)cc1", "note": "(stereo not given)", "Potency": "inconclusive [inhibitor, single point]"}, {"smiles": "Nc1nc2ccccc2n1C(=O)c1ccc(F)cc1", "Potency": "active: 11.2 µM"}, {"smiles": "Cc1cc(C)nc(NS(=O)(=O)c2ccc(NS(=O)(=O)c3ccc(C#N)cc3)cc2)n1", "Potency": "inconclusive [inhibitor, single point]"}, {"smiles": "Cc1ccc(NC(=O)Cn2c([N+](=O)[O-])cnc2C)cc1Cl", "activity, negative = inhibition": "inactive: -2.82%"}, {"smiles": "COC(=O)c1ccc(NC(=S)NCCCn2ccnc2)cc1", "activity, negative = inhibition": "inactive: 18.7%"}, {"smiles": "CC(C)c1ccc(/C=C2\\SC(=S)N(CCC(=O)N3CCCCC3CCO)C2=O)cc1", "note": "(stereo not given)", "Potency": "inconclusive [inhibitor, partial curve]"}, {"smiles": "CCC(C(=O)N1CCCCCC1)n1nc(C)n2c(cc3occc32)c1=O", "note": "(stereo not given)", "Potency": "inconclusive [inhibitor, full curve, poor fit]"}, {"smiles": "Clc1c(CSc2nc3ccccc3o2)nc2ccccn12", "Potency": "active: 7.08 µM"}, {"smiles": "COCCCNc1oc(/C=C/c2ccccc2)nc1C#N", "activity, negative = inhibition": "inactive: -13.3%"}, {"smiles": "COc1cc(O)c(C(=O)/C=C/c2ccccc2)c(OC)c1", "Potency": "inconclusive [activator, partial curve]"}, {"smiles": "COC(Cc1n[nH]c(=S)n1-c1ccccc1)OC", "activity, negative = inhibition": "inactive: 0.907%"}, {"smiles": "COc1ccc(OCCn2cc(/C=N/NC(=O)c3ccncc3)c3ccccc32)cc1", "Potency": "active: 8.91 µM"}, {"smiles": "O=C(c1ccc2c(=O)n(Cc3ccc(Cl)cc3)c(=S)[nH]c2c1)N1CCOCC1", "Potency": "active: 7.08 µM"}, {"smiles": "COc1ccc(-c2csc(NC(=O)COC(=O)C3=COCCO3)n2)cc1", "Potency": "inconclusive [activator, full curve, poor fit]"}, {"smiles": "CCC(=O)Nc1ccc(C(=O)OCc2ccccc2)cc1", "Potency": "inconclusive [activator, single point]"}, {"smiles": "CCCCOC(=O)c1cc2c(cn1)[nH]c1ccccc12", "Potency": "active: 31.6 µM"}, {"smiles": "Cc1ccc(C(=O)N/C(=C\\c2ccc(-c3cccc([N+](=O)[O-])c3)o2)C(=O)NC(C)(C)C)cc1", "Potency": "inconclusive [inhibitor, partial curve, poor fit]"}, {"smiles": "O=C(O)c1cc2cc(OCc3ccccc3)ccc2[nH]1", "activity, negative = inhibition": "inactive: 8.09%"}, {"smiles": "COc1ccc(-c2[nH]ncc2-c2cnc(C)s2)c(O)c1", "Potency": "inconclusive [inhibitor, partial curve]"}, {"smiles": "O=C(NNc1nc(-c2ccccc2)cs1)c1cccs1", "Potency": "inconclusive [inhibitor, single point]"}, {"smiles": "O=C(c1ccccc1)N1CCC2(CC1)NCCc1[nH]cnc12", "activity, negative = inhibition": "inactive: 5.63%"}, {"smiles": "Cc1cc2nc3c(c(=O)n2[nH]1)CCCC3", "activity, negative = inhibition": "inactive: -0.718%"}, {"smiles": "COc1ccc(C2=NN3C(C2)c2ccccc2OC3c2cccs2)cc1", "note": "(stereo not given)", "Potency": "inconclusive [inhibitor, single point]"}, {"smiles": "COc1ccccc1-c1c(C#N)c(N)nc2c1CCc1ccccc1-2", "Potency": "inconclusive [inhibitor, single point]"}, {"smiles": "CC(C)CC(C(=O)Nc1oc(-c2ccccc2)c(-c2ccccc2)c1C#N)N1C(=O)c2ccccc2C1=O", "note": "(stereo not given)", "activity, negative = inhibition": "inactive: -7.29%"}, {"smiles": "CC1CCc2nc(NC(=O)c3ccco3)sc2C1", "note": "(stereo not given)", "Potency": "active: 3.98 µM"}, {"smiles": "COc1ccc(OCC(=O)NCc2ccc(Cl)cc2)cc1", "activity, negative = inhibition": "inactive: 1.41%"}, {"smiles": "COc1ccc(OC)c(S(=O)(=O)Nc2ccc3oc(C)c(C(C)=O)c3c2)c1", "Potency": "inconclusive [activator, single point]"}, {"smiles": "OCCN(CCO)c1ccc(C(c2ccc(Cl)cc2)c2ccc(N(CCO)CCO)cc2Cl)c(Cl)c1", "Potency": "inconclusive [inhibitor, partial curve, poor fit]"}, {"smiles": "COc1ccc(-c2nnc(SCC(=O)/C(C#N)=C(\\C)N)o2)cc1", "Potency": "inconclusive [inhibitor, single point]"}, {"smiles": "COc1ccc(C2c3ccc4ccccc4c3Oc3ncn(CCN4CCOCC4)c(=N)c32)cc1", "note": "(stereo not given)", "Potency": "inconclusive [inhibitor, single point]"}, {"smiles": "COc1ccc(Cl)cc1NC(=O)CNC(c1ccccc1)c1ccccc1", "Potency": "active: 2.51 µM"}, {"smiles": "Cc1ccc(-c2cc(C(=O)N/N=C/c3ccc([N+](=O)[O-])o3)c3ccccc3n2)o1", "Potency": "inconclusive [inhibitor, single point]"}, {"smiles": "COc1cc(C)ccc1OCCCCOc1ccccc1C(C)=O", "Potency": "inconclusive [inhibitor, single point]"}, {"smiles": "O=S(=O)(c1ccccc1)N1N=C(c2ccc(O)cc2)CC1c1ccco1", "note": "(stereo not given)", "Potency": "active: 20 µM"}, {"smiles": "CCCC(O)(c1ccc(Cl)cc1)C(CN1CCOCC1)c1ccccc1", "note": "(stereo not given)", "activity, negative = inhibition": "inactive: -19.5%"}, {"smiles": "CC(C)c1ccc(C(=O)NN2C(=O)C3CCCCC3C2=O)cc1", "note": "(stereo not given)", "Potency": "inconclusive [inhibitor, single point]"}, {"smiles": "CCc1ccc(C2=NN(c3ccc(S(N)(=O)=O)cc3)C(c3ccc(F)cc3)C2)cc1", "note": "(stereo not given)", "Potency": "inconclusive [inhibitor, single point]"}, {"smiles": "O=[N+]([O-])/C=C/c1ccc2c(ccn2Cc2ccccc2)c1", "Potency": "active: 11.2 µM"}, {"smiles": "Cn1cccc1/C=N/NC(=O)c1sc2ccccc2c1Cl", "Potency": "active: 3.16 µM"}, {"smiles": "CC(C)(C)c1ccc(C(=O)Nc2cccc3ncccc23)cc1", "Potency": "inconclusive [inhibitor, single point]"}, {"smiles": "CCOC(=O)N1CCN(c2nc3c(c(=O)[nH]c(=O)n3C)n2Cc2ccccc2Cl)CC1", "activity, negative = inhibition": "inactive: 3.81%"}, {"smiles": "c1ccc(-c2ccc(-c3cn4c(n3)CCC4)cc2)cc1", "Potency": "active: 11.2 µM"}, {"smiles": "O=C(NC1=NCCS1)c1csc2ccccc12", "Potency": "inconclusive [inhibitor, single point]"}, {"smiles": "Cc1ccc(-c2c(C(=O)N/N=C/c3ccsc3)nnn2-c2nonc2N)cc1", "Potency": "active: 20 µM"}, {"smiles": "O=C(CN1C(=O)C(c2ccc(F)cc2)=NC12CCCC2)Nc1ccc(F)cc1", "Potency": "inconclusive [inhibitor, single point]"}, {"smiles": "Cc1ccc(-n2c(-c3ccc(Cl)cc3)c[n+]3c2CCC3)cc1", "activity, negative = inhibition": "inactive: -9.15%"}, {"smiles": "Fc1ccccc1CNC(=S)Nc1cccc(C(F)(F)F)c1", "Potency": "active: 7.08 µM"}, {"smiles": "Cc1nc2c(ncn2-c2ccccc2)c(=O)n1NC(=O)CN1CCN(C)CC1", "activity, negative = inhibition": "inactive: -9.33%"}, {"smiles": "Cc1cccnc1NC(=S)NC(=O)c1cccs1", "Potency": "active: 10 µM"}, {"smiles": "O=C1/C(=C\\c2ccsc2)NC(=S)N1c1ccccc1", "Potency": "active: 22.4 µM"}, {"smiles": "O=C(c1cccs1)N1CCN(c2ccccc2)CC1", "Potency": "inconclusive [activator, single point]"}, {"smiles": "Cc1ccc(C2=NN(S(C)(=O)=O)C(c3cccs3)C2)cc1", "note": "(stereo not given)", "Potency": "inconclusive [inhibitor, full curve]"}, {"smiles": "CC(=O)[C@@H]1[C@@H](C(=O)c2ccccc2)[C@]2(C(=O)Nc3ccccc32)[C@H]2C=Cc3cc(F)ccc3N12", "Potency": "inconclusive [activator, single point]"}, {"smiles": "N#Cc1ccc(-c2cccnc2)nc1SCc1ccc(Cl)c(Cl)c1", "Potency": "inconclusive [inhibitor, single point]"}, {"smiles": "O=C(Nc1ccc2oc(-c3ccccc3)nc2c1)C1CCCO1", "note": "(stereo not given)", "activity, negative = inhibition": "inactive: -21.1%"}, {"smiles": "O=C(/C=C/Sc1ncn[nH]1)c1ccc(Cl)cc1", "Potency": "active: 4.47 µM"}, {"smiles": "O=C(CSc1ncn[nH]1)Nc1ccc([N+](=O)[O-])cc1Br", "Potency": "inconclusive [inhibitor, single point]"}, {"smiles": "COc1ccc(OCC(=O)Nc2ccccc2O)cc1", "Potency": "inconclusive [inhibitor, single point]"}, {"smiles": "CCOC(=O)c1oc2cc(O)ccc2c(=O)c1-c1ccccc1OC", "activity, negative = inhibition": "inactive: 3.08%"}, {"smiles": "Cc1cccc(-c2nnc(SCCC(=O)N3CCOCC3)o2)c1", "Potency": "active: 7.08 µM"}, {"smiles": "Cc1cc2cc(CCNC(=O)CC(C)(C)C)c(=O)[nH]c2cc1C", "Potency": "inconclusive [activator, partial curve]"}, {"smiles": "COc1cc(OC)cc(-c2nc3ccccc3c(=O)n2OC(=O)c2ccccc2C)c1", "Potency": "inconclusive [inhibitor, single point]"}, {"smiles": "COC(=O)c1ccccc1NC(=O)c1nc(S(=O)(=O)Cc2ccccc2)ncc1Cl", "Potency": "active: 3.16 µM"}]}]}
